# Measured values taken from the supplement of paper PMC8728848.
# The list shows a part of the results.
# How the values were obtained:
# Test in all cases: glycan array binding signal (z-score within array); higher = stronger binding
# Conditions in all cases: glycan notation: IUPAC condensed, linker removed
# [1] = target: Neu5Ac(a2-6)Gal(b1-4)GlcNAc(b1-2)[Neu5Ac(a2-6)Gal(b1-4)GlcNAc(b1-4)]Man(a1-3)[GlcNAc(b1-4)][Neu5Ac(a2-6)Gal(b1-4)GlcNAc(b1-2)[Neu5Ac(a2-6)Gal(b1-4)GlcNAc(b1-6)]Man(a1-6)]Man(b1-4)GlcNAc(b1-4)GlcNAc
# Procedure, shortened: (§1)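 Glycan array binding is given as a within-array Z-score, which can be read as non-binding when negative. The arrays, 3228 of them, came from the Consortium for Functional Glycomics database and were retained only where the protein sequence was available. Z-scores were averaged across arrays of the same protein sequence at different concentrations or buffers and across linkers.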
# [2] = target: Neu5Ac(a2-6)Gal(b1-4)GlcNAc(b1-2)[Neu5Ac(a2-6)Gal(b1-4)GlcNAc(b1-4)]Man(a1-3)[GlcNAc(b1-4)][Neu5Ac(a2-6)Gal(b1-4)GlcNAc(b1-4)Man(a1-6)]Man(b1-4)GlcNAc(b1-4)GlcNAc
# Procedure, shortened: as §1
# [3] = target: Neu5Ac(a2-6)Gal(b1-4)GlcNAc(b1-2)[Neu5Ac(a2-6)Gal(b1-4)GlcNAc(b1-6)]Man(a1-6)[Neu5Ac(a2-6)Gal(b1-4)GlcNAc(b1-2)Man(a1-3)][GlcNAc(b1-4)]Man(b1-4)GlcNAc(b1-4)GlcNAc
# Procedure, shortened: as §1
# [4] = target: Neu5Ac(a2-6)Gal(b1-4)GlcNAc(b1-3)Gal(b1-3)GlcNAc
# Procedure, shortened: as §1
# [5] = target: Neu5Ac(a2-6)Gal(b1-4)GlcNAc(b1-3)Gal(b1-4)GlcNAc
# Procedure, shortened: as §1
# [6] = target: Neu5Ac(a2-6)Gal(b1-4)GlcNAc(b1-3)Gal(b1-4)GlcNAc(b1-2)Man(a1-3)[Neu5Ac(a2-6)Gal(b1-4)GlcNAc(b1-3)Gal(b1-4)GlcNAc(b1-2)Man(a1-6)]GalNAc
# Procedure, shortened: as §1
# [7] = target: Neu5Ac(a2-6)Gal(b1-4)GlcNAc(b1-3)Gal(b1-4)GlcNAc(b1-3)Gal(b1-4)GlcNAc
# Procedure, shortened: as §1
# [8] = target: Neu5Ac(a2-6)Gal(b1-4)GlcNAc(b1-3)Gal(b1-4)GlcNAc(b1-3)Gal(b1-4)GlcNAc(b1-2)Man(a1-3)[Neu5Ac(a2-6)Gal(b1-4)GlcNAc(b1-3)Gal(b1-4)GlcNAc(b1-3)Gal(b1-4)GlcNAc(b1-2)Man(a1-6)]GalNAc
# Procedure, shortened: as §1
# [9] = target: Neu5Ac(a2-6)Gal(b1-4)GlcNAc(b1-3)Gal(b1-4)GlcNAc(b1-3)GalNAc
# Procedure, shortened: as §1
# [10] = target: Neu5Ac(a2-6)Gal(b1-4)GlcNAc(b1-3)Gal(b1-4)GlcNAc(b1-3)[Neu5Ac(a2-6)Gal(b1-4)GlcNAc(b1-3)Gal(b1-4)GlcNAc(b1-6)]GalNAc
# Procedure, shortened: as §1
# [11] = target: Neu5Ac(a2-6)Gal(b1-4)GlcNAc(b1-3)Gal(b1-4)GlcNAc(b1-6)[Gal(b1-3)]GalNAc
# Procedure, shortened: as §1
# [12] = target: Neu5Ac(a2-6)Gal(b1-4)GlcNAc(b1-3)Gal(b1-4)[Fuc(a1-3)]GlcNAc(b1-3)Gal(b1-4)[Fuc(a1-3)]GlcNAc
# Procedure, shortened: as §1
# [13] = target: Neu5Ac(a2-6)Gal(b1-4)GlcNAc(b1-3)GalNAc
# Procedure, shortened: as §1
# [14] = target: Neu5Ac(a2-6)Gal(b1-4)GlcNAc(b1-3)[Neu5Ac(a2-6)Gal(b1-4)GlcNAc(b1-6)]GalNAc
# Procedure, shortened: as §1
# [15] = target: Neu5Ac(a2-6)Gal(b1-4)GlcNAc(b1-6)GalNAc
# Procedure, shortened: as §1
# [16] = target: Neu5Ac(a2-6)Gal(b1-4)GlcNAc(b1-6)[Gal(b1-3)GlcNAc(b1-3)]Gal(b1-4)Glc
# Procedure, shortened: as §1
# [17] = target: Neu5Ac(a2-6)Gal(b1-4)GlcNAc(b1-6)[Gal(b1-3)]GalNAc
# Procedure, shortened: as §1
# [18] = target: Neu5Ac(a2-6)Gal(b1-4)GlcNAc6S
# Procedure, shortened: as §1
# Neu5Ac(a2-6)GalNAc = target: Neu5Ac(a2-6)GalNAc
# Procedure, shortened: as §1
# [19] = target: Neu5Ac(a2-6)GalNAc(b1-4)GlcNAc
# Procedure, shortened: as §1
# [20] = target: Neu5Ac(a2-6)GalNAc(b1-4)GlcNAc6S
# Procedure, shortened: as §1
# [21] = target: Neu5Ac(a2-6)GlcNAc(b1-4)GlcNAc
# Procedure, shortened: as §1
# [22] = target: Neu5Ac(a2-6)GlcNAc(b1-4)GlcNAc(b1-4)GlcNAc
# Procedure, shortened: as §1
# Neu5Ac(a2-8)Neu5Ac = target: Neu5Ac(a2-8)Neu5Ac
# Procedure, shortened: as §1
# [23] = target: Neu5Ac(a2-8)Neu5Ac(a2-3)Gal(b1-3)GalNAc(b1-4)[Neu5Ac(a2-3)]Gal(b1-4)Glc
# Procedure, shortened: as §1
# [24] = target: Neu5Ac(a2-8)Neu5Ac(a2-3)Gal(b1-3)GalNAc(b1-4)[Neu5Ac(a2-8)Neu5Ac(a2-3)]Gal(b1-4)Glc
# Procedure, shortened: as §1
# [25] = target: Neu5Ac(a2-8)Neu5Ac(a2-3)Gal(b1-4)Glc
# Procedure, shortened: as §1
# [26] = target: Neu5Ac(a2-8)Neu5Ac(a2-3)Gal(b1-4)GlcNAc
# Procedure, shortened: as §1
# [27] = target: Neu5Ac(a2-8)Neu5Ac(a2-3)[Gal(b1-3)GalNAc(b1-4)]Gal(b1-4)Glc
# Procedure, shortened: as §1
# [28] = target: Neu5Ac(a2-8)Neu5Ac(a2-3)[GalNAc(b1-4)]Gal(b1-4)Glc
# Procedure, shortened: as §1
# [29] = target: Neu5Ac(a2-8)Neu5Ac(a2-8)Neu5Ac
# Procedure, shortened: as §1
# [30] = target: Neu5Ac(a2-8)Neu5Ac(a2-8)Neu5Ac(a2-3)Gal(b1-4)Glc
# Procedure, shortened: as §1
# [31] = target: Neu5Ac(a2-8)Neu5Ac(a2-8)Neu5Ac(a2-3)[Gal(b1-3)GalNAc(b1-4)]Gal(b1-4)Glc
# Procedure, shortened: as §1
# [32] = target: Neu5Ac(a2-8)Neu5Ac(a2-8)Neu5Ac(a2-3)[GalNAc(b1-4)]Gal(b1-4)Glc
# Procedure, shortened: as §1
# [33] = target: Neu5Ac(a2-8)Neu5Ac(a2-8)Neu5Ac(a2-8)Neu5Ac(a2-3)[GalNAc(b1-4)]Gal(b1-4)Glc
# Procedure, shortened: as §1
# [34] = target: Neu5Ac(a2-8)Neu5Gc(a2-3)Gal(b1-4)GlcNAc
# Procedure, shortened: as §1
# [35] = target: Neu5Ac(b2-6)Gal(b1-4)GlcNAc
# Procedure, shortened: as §1
# Neu5Ac(b2-6)GalNAc = target: Neu5Ac(b2-6)GalNAc
# Procedure, shortened: as §1
# [36] = target: Neu5Ac9Ac(a2-3)Gal(b1-3)GlcNAc
# Procedure, shortened: as §1
# [37] = target: Neu5Ac9Ac(a2-3)Gal(b1-4)GlcNAc
# Procedure, shortened: as §1
# [38] = target: Neu5Ac9Ac(a2-6)Gal(b1-4)GlcNAc
# Procedure, shortened: as §1
# [39] = target: Neu5Gc(a2-3)Gal(b1-3)GlcNAc
# Procedure, shortened: as §1
# [40] = target: Neu5Gc(a2-3)Gal(b1-3)[Fuc(a1-4)]GlcNAc
# Procedure, shortened: as §1
# Neu5Gc(a2-3)Gal(b1-4)Glc = target: Neu5Gc(a2-3)Gal(b1-4)Glc
# Procedure, shortened: as §1
# [41] = target: Neu5Gc(a2-3)Gal(b1-4)GlcNAc
# Procedure, shortened: as §1
# [42] = target: Neu5Gc(a2-3)Gal(b1-4)GlcNAc(b1-3)Gal(b1-4)GlcNAc(b1-2)Man(a1-3)[Neu5Gc(a2-3)Gal(b1-4)GlcNAc(b1-3)Gal(b1-4)GlcNAc(b1-2)Man(a1-6)]Man(b1-4)GlcNAc(b1-4)GlcNAc
# Procedure, shortened: as §1
# [43] = target: Neu5Gc(a2-3)Gal(b1-4)[Fuc(a1-3)]GlcNAc
# Procedure, shortened: as §1
# [44] = target: Neu5Gc(a2-6)Gal(b1-4)GlcNAc
# Procedure, shortened: as §1
# Neu5Gc(a2-6)GalNAc = target: Neu5Gc(a2-6)GalNAc
# Procedure, shortened: as §1
# [45] = target: Neu5Gc(a2-8)Neu5Ac(a2-3)Gal(b1-4)GlcNAc
# Procedure, shortened: as §1
# [46] = target: Neu5Gc(a2-8)Neu5Gc(a2-3)Gal(b1-4)GlcNAc
# Procedure, shortened: as §1
# [47] = target: Neu5Gc(a2-8)Neu5Gc(a2-3)Gal(b1-4)GlcNAc(b1-3)Gal(b1-4)GlcNAc
# Procedure, shortened: as §1
# [48] = target: Neu5Gc(a2-8)Neu5Gc(a2-6)Gal(b1-4)GlcNAc
# Procedure, shortened: as §1
# [49] = target: Neu5Gc(b2-6)Gal(b1-4)GlcNAc
# Procedure, shortened: as §1
binder,measurement,setting,value
"Gal 1 (Mus musculus), P16045 (protein) MACGLVASNLNLKPGECLKVRGEVASDAKSFVLNLGKDSNNLCLHFNPRFNAHGDANTIVCNTKEDGTWGTEHREPAFPFQPGSITEVCITFDQADLTIKLPDGHEFKFPNRLNMEAINYMAADGDFKIKCVAFE",glycan array binding signal (z-score),[1],-0.4
same,glycan array binding signal (z-score),[2],-0.331
same,glycan array binding signal (z-score),[3],-0.329
same,glycan array binding signal (z-score),[4],-0.443
same,glycan array binding signal (z-score),[5],-0.348
same,glycan array binding signal (z-score),[6],-0.193
same,glycan array binding signal (z-score),[7],-0.472
same,glycan array binding signal (z-score),[8],0.96
same,glycan array binding signal (z-score),[9],-0.219
same,glycan array binding signal (z-score),[10],1.13
same,glycan array binding signal (z-score),[11],-0.169
same,glycan array binding signal (z-score),[12],-0.335
same,glycan array binding signal (z-score),[13],-0.162
same,glycan array binding signal (z-score),[14],-0.359
same,glycan array binding signal (z-score),[15],-0.234
same,glycan array binding signal (z-score),[16],0.027
same,glycan array binding signal (z-score),[17],-0.257
same,glycan array binding signal (z-score),[18],-0.161
same,glycan array binding signal (z-score),Neu5Ac(a2-6)GalNAc,-0.461
same,glycan array binding signal (z-score),[19],-0.251
same,glycan array binding signal (z-score),[20],-0.3
same,glycan array binding signal (z-score),[21],-0.34
same,glycan array binding signal (z-score),[22],-0.381
same,glycan array binding signal (z-score),Neu5Ac(a2-8)Neu5Ac,-0.093
same,glycan array binding signal (z-score),[23],0.151
same,glycan array binding signal (z-score),[24],-0.143
same,glycan array binding signal (z-score),[25],-0.165
same,glycan array binding signal (z-score),[26],-0.102
same,glycan array binding signal (z-score),[27],-0.36
same,glycan array binding signal (z-score),[28],-0.285
same,glycan array binding signal (z-score),[29],-0.343
same,glycan array binding signal (z-score),[30],-0.347
same,glycan array binding signal (z-score),[31],-0.333
same,glycan array binding signal (z-score),[32],-0.144
same,glycan array binding signal (z-score),[33],-0.422
same,glycan array binding signal (z-score),[34],-0.094
same,glycan array binding signal (z-score),[35],-0.319
same,glycan array binding signal (z-score),Neu5Ac(b2-6)GalNAc,-0.21
same,glycan array binding signal (z-score),[36],-0.121
same,glycan array binding signal (z-score),[37],-0.091
same,glycan array binding signal (z-score),[38],-0.419
same,glycan array binding signal (z-score),[39],-0.106
same,glycan array binding signal (z-score),[40],-0.379
same,glycan array binding signal (z-score),Neu5Gc(a2-3)Gal(b1-4)Glc,-0.248
same,glycan array binding signal (z-score),[41],-0.242
same,glycan array binding signal (z-score),[42],1.49
same,glycan array binding signal (z-score),[43],-0.407
same,glycan array binding signal (z-score),[44],-0.4
same,glycan array binding signal (z-score),Neu5Gc(a2-6)GalNAc,-0.293
same,glycan array binding signal (z-score),[45],-0.226
same,glycan array binding signal (z-score),[46],-0.193
same,glycan array binding signal (z-score),[47],0.426
same,glycan array binding signal (z-score),[48],-0.465
same,glycan array binding signal (z-score),[49],-0.306
